Test results reported in the RNAGym collection of RNA variant scans (doi:10.7554/elife.90254).
The source gives no read counts; variants with many changes may rest on few reads.

B1: LINE1-mini (parent)
chain: GGCAGAGCUCAACACAGCGUGGCAAAGUGGCUGUGGCUAGACUGCC

Variants of: B1
Assay: self-cleavage, relative activity (ratio to wild type); higher = more cleavage; in vitro, sequencing; the parent is a self-cleaving ribozyme

| Variant | self-cleavage |
| --- | --- |
| G2C C15A A24C G27A C37A | 0.03 |
| G2U A4G G29C G30C U32A A39G C46U | 0.03 |
| G2C G27U G33A C46G | 0.21 |
| G2C G35C A41C | 0.05 |
| G2C C13G C15U | 0.23 |
| G2C U9G U28C G30A G33A | 0 |
| G2C G30A C31U | 0.04 |
| G2C G7U C18A G19U A25C A39C | 0.18 |
| G2U A4G G17C G29U G30U G36A G40A | 0.04 |
| G2C G22U C31G G33U | 0.23 |
| G2U A4G A39G | 0.02 |
| G2C G5A G19C G22A G36A | 0.04 |
| G2C G5A C13A A14U U20A C46U | 0.03 |
| G2C C10U A26G C31G G35A C37U | 0.04 |
| G2C C15A C37A C42A | 0.02 |
| G2C G17C C23U | 0.1 |
| G2C G21U U32C C46U | 0.1 |
| G2C C13A U20A C31U G36C | 0.32 |
| G2C G5U C10A | 0.01 |
| G2U A4U G5U A39G | 0.07 |
| G2C G7A G44C | 0.15 |
| G2C G21C C31U U38C G44A C45A | 0.27 |
| G2U A6C U20G C23U | 0.06 |
| G2C C13U A26U G33U | 0.08 |

| Variant | self-cleavage |
| --- | --- |
| G2C G5U A39U | 0.01 |
| G2C G33A U38A | 0.02 |
| G2U A4U G27C G33U | 0.01 |
| G2C C31A C37U U38G A39U | 0.12 |
| G2C C10U C13G A24U A26C | 0.03 |
| G2C U34G A41U C45A | 0.03 |
| G2C G33A A39G C45G | 0.01 |
| G2C C31A C45G | 0.07 |
| G2C G7U A41G | 0.07 |
| G2C C15A C37A G44A | 0.17 |
| G2C G35C C42U | 0 |
| G2C U9C C10U G17C C23U A24C G44A | 0.01 |
| G2C G5U G22A U28C G33C | 0.02 |
| G2U A4U A11U A16G G44A | 0.02 |
| G2C C31G C46A | 0.07 |
| G2C U9C U20A | 0.02 |
| G2C G29U G33A G44A | 0.33 |
| G2U A4U G22C G27C | 0.03 |
| G2C G17A U28C | 0.03 |
| G2C C10U C46U | 0.08 |
| G2U A4U C13A G22C C42A C45G | 0.01 |
| G2U A4G G5A G21U | 0.06 |
| G2C U9G C15G C42G U43G | 0.02 |
| G2C U9G A14G C15A | 0.48 |

| Variant | self-cleavage |
| --- | --- |
| G2U A4G G7C U34G U38G | 0.03 |
| G2C U9C A25U A41U | 0.1 |
| G2C G5U C15G A25G | 0.01 |
| G2C G19A G21U G33U | 0.02 |
| G2C C10U G40A U43C | 0 |
| G2U A4G C10A A12U C13A G33C | 0.02 |
| G2C G17C G19C G40U C45U | 0.01 |
| G2U A4G G29U | 0.03 |
| G2U A4U A16C A39C | 0.05 |
| G2U A4G G17A C18U U34C C37G | 0.02 |
| G2C G5A C8A G22U C37A A41G | 0.38 |
| G2C G7C C8U A26G A39G C45U | 0.23 |
| G2C G7C G19C G27U U28G G36C | 0.02 |
| G2U A4C C23U G40A | 0.03 |
| G2C C15G C37A | 0.02 |
| G2C U20A U32G G40A | 0.06 |
| G2C G7U C8U G22A C42U | 0.09 |
| G2U A6C U32C | 0.01 |
| G2C C13U A24G G33A | 0.07 |
| G2C C15A U20A G33A | 0.02 |
| G2C C13U A25U G27C G29C C31A | 0.04 |
| G2C U9C U28G | 0.02 |
| G2C G5U U9G G22C U38C G40A C46A | 0.01 |
| G2U A4G C37A C46A | 1.04 |

| Variant | self-cleavage |
| --- | --- |
| G2U A4U A6C A12C U28A | 0.02 |
| G2C G19C G27C G35A | 0.07 |
| G2C U9C G21A G22C | 0.01 |
| G2C U20A G29U A41C | 0.06 |
| G2U A6C G22U C37A | 0.02 |
| G2U A6G A39U | 0.01 |
| G2C G5C U20A A41C | 0 |
| G2C U9G C13G U20C G33U | 0.04 |
| G2C G5U A25U | 0.03 |
| G2C G5U G7A A12G A25U G30U U34G | 0.1 |
| G2C U38C A39C C45G C46A | 0.08 |
| G2C G7A C8A G17A C37A A39G | 0.08 |
| G2C G35A G36A G40U C42G | 0.03 |
| G2U A4U G19A | 0.05 |
| G2U A4G G5U | 0.06 |
| G2C G7U A12U A14C | 0.16 |
| G2C G33C C37G A41C | 0.04 |
| G2U A4U U28G G30C | 0.02 |
| G2C C18G A26C U43C | 0.04 |
| G2C C15A A25U U43C | 0.02 |
| G2C U38A C42G | 0.21 |
| G2C G27A G30U A39C C46U | 0.03 |
| G2C G19C A26G | 0 |
| G2C G5U G27C | 0.01 |

| Variant | self-cleavage |
| --- | --- |
| G2C G7A G19C U20G G35U | 0.77 |
| G2C C13U C23U C45U | 0.06 |
| G2C C15A C18A C31G A39G G44U | 0.02 |
| G2U A6G G17A A24U G29U G36A U38A | 0.04 |
| G2C G21U A24G | 0.26 |
| G2C G19A G29U C46U | 0.26 |
| G2C G7A C8G | 0.08 |
| G2C U20C C31U | 0.04 |
| G2C G19A G22C C42A | 0.04 |
| G2C G5C A41G | 0.01 |
| G2U A6G C18U U34G U38C U43A | 0 |
| G2C G29U U34G | 0.02 |
| G2U A6G C15G U34A G40U | 0.02 |
| G2C C15U U38G | 0.06 |
| G2C C10U G19C U20C G30U A39G A41C G44A | 0.04 |
| G2U A6C G30C | 0.04 |
| G2U A6C G30U | 0.17 |
| G2C G5C U9A A16U C42U | 0.01 |
| G2C G22C U38G A39G C45U | 0 |
| G2U A4C C8G G35A | 0.05 |
| G2C C18A A41C | 0 |
| G2C U34C G40C | 0.1 |
| G2C C37U C45A | 0.23 |
| G2C G7A A14G U28C G36U A41G | 0.58 |

| Variant | self-cleavage |
| --- | --- |
| G2C C31U G36A | 0.11 |
| G2C G17U G36A | 0.08 |
| G2C G29U U38C | 0.18 |
| G2C G17C C23U U34A G35C G40C | 0.04 |
| G2C G7U C18U G22A G30C G33A | 0.01 |
| G2C C10G U34G | 0 |
| G2U A6C A25U G30A C37G | 0.02 |
| G2C C18A C31U | 0.05 |
| G2C C18A C31G | 0.03 |
| G2C G21A G27U G40A | 0.01 |
| G2U A6G C18U | 0.08 |
| G2U A6G C18G | 0.04 |
| G2U A4G C8G G22A | 0.01 |
| G2C G5A U20G U43G | 0 |
| G2U A6G C15U | 0.02 |
| G2U A4G G17C G19A C37U | 0.07 |
| G2C C23U U43A | 0.04 |
| G2C C18A G30U G36U | 0.02 |
| G2C C10U U34G U43C C45G C46G | 0.01 |
| G2C C13G A39G G40A U43A G44C | 0.27 |
| G2U A6G G21U A39C | 0.01 |
| G2C C13U C23A A25U G27U U28G G30A G33U | 0.05 |
| G2U A4U C13G G27C U32C | 0.07 |
| G2C C18G G19U A39C | 0.07 |

| Variant | self-cleavage |
| --- | --- |
| G2C G5C C15A G17U | 0.06 |
| G2C C13U G22C G36A | 0.04 |
| G2C U9A A12C | 0.03 |
| G2U A4C G44C | 0.04 |
| G2U A4G C8G | 0.58 |
| G2U A4G U34A | 0.02 |
| G2C G29C U43G | 0 |
| G2C G5U C10A A12U C15A | 0.04 |
| G2C G5U U20C G44C | 0.02 |
| G2U A4C G40A C42U | 0.04 |
| G2C U32G G33A | 0.03 |
| G2C G22A G40U C42U G44A | 0.13 |
| G2C C15A G30A U34C G35A C37A A41G | 0.04 |
| G2C C13U U38G C46A | 0.03 |
| G2C G5A A26U G29U | 0.05 |
| G2C G7A G21C G29U C45G | 0.03 |
| G2U A6C C23A U38A | 0.01 |
| G2U A6G A16U G17C G21U A26U | 0.03 |
| G2C G5U A14C A16G U32A | 0.01 |
| G2C C10G G22U | 0.02 |
| G2C C18U G27U | 0.05 |
| G2C U9G C15U G21A C46A | 0.03 |
| G2C G7U U9G C15U G30A G36A G44U | 0.04 |
